According to the supplement of paper PMC7125110:
This sample is rich in variants without activity.

B1: glmS ribozyme (parent)
chain: AUAAAAGCGCCAGAACUACAGAAAUGUAGUUGACGAGGAGGAGGUUUAUCGAAUUUUCGGCGGAUGCCUCCAAA

What was measured:
Conditions in all cases: with glucosamine-6-phosphate
glucosamine-6-phosphate [1] = variants of: B1; assay: self-cleavage kobs at 640 uM GlcN6P; higher = faster cleavage; RNA array
Procedure, shortened: (§1)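 On sequenced MiSeq chips, barcoded ribozyme variants were made in situ by E. coli RNA polymerase and followed at 37 °C through a hybridised Cy3 probe. Glucosamine-6-phosphate was flowed in at 40 μM to 10 mM in HEPES/KCl/Mg(OAc)2 buffer. Exponential fits to normalised per-tile medians gave kobs, and weighted Michaelis–Menten fits gave kcat and KM.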

glucosamine-6-phosphate [2] = variants of: B1; assay: self-cleavage kobs at 2500 uM GlcN6P; higher = faster cleavage; RNA array
Procedure, shortened: as §1

glucosamine-6-phosphate [3] = variants of: B1; assay: self-cleavage kobs at 10000 uM GlcN6P; higher = faster cleavage; RNA array
Procedure, shortened: as §1

glucosamine-6-phosphate [4] = variants of: B1; assay: self-cleavage kobs at 160 uM GlcN6P; higher = faster cleavage; RNA array
Procedure, shortened: as §1

Variant | self-cleavage kobs at 640 uM GlcN6P (glucosamine-6-phosphate [1]) | self-cleavage kobs at 2500 uM GlcN6P (glucosamine-6-phosphate [2]) | self-cleavage kobs at 10000 uM GlcN6P (glucosamine-6-phosphate [3]) | self-cleavage kobs at 160 uM GlcN6P (glucosamine-6-phosphate [4])
AUAAAAGUGCCAGAACUACAGAAAUGUAGUUGACGAGGAGGAGGCUUUUCGAAUUUUCAGCGGAUGCCUCCAAA | < 1e-05 s⁻¹ | < 1e-05 s⁻¹ | – | –
AUAAAAGUGCCAGAACUACAGAAAUGUAGUUGACGAGGAGGAGGGUUAUCGCAUUUUCGGCGGAUGCCUCCAAA | < 1e-05 s⁻¹ | < 1e-05 s⁻¹ | – | –
AUAAAAGUGCCAGAACUACAGAAAUGUAGUUGACGAGGAGGAGGGGUAUCGAAUUUUCGGCGGUUCCCUCCAAA | < 1e-05 s⁻¹ | < 1e-05 s⁻¹ | – | –
AUAAAAGUGCCAGAACUACAGAAAUGUAGUUGACGAGGAGGAGGUGUAUCGAAUUUUCGGAGGAUGCUUCCAAA | < 1e-05 s⁻¹ | – | – | –
AUAAAAGUGCCAGAACUACAGAAAUGUAGUUGACGAGGAGGAGGUUUAGCGAAUUUUCGGCGGAUGCCUCCAAA | < 1e-05 s⁻¹ | < 1e-05 s⁻¹ | < 1e-05 s⁻¹ | –
AUAAAAGUGCCAGAACUACAGAAAUGUAGUUGACGAGGAGGAGGUUUAUCGAAGUUUCGGCGGAUCCCUCCAAA | < 1e-05 s⁻¹ | – | – | –
AUAAAAGUGCCAGAACUACAGAAAUGUAGUUGACGAGGAGGAGGUUUAUCGAAUUAUCGGCGGACGCCUCCAAA | < 1e-05 s⁻¹ | – | – | –
AUAAAAGCACCCGAACUACAGAAAUGUAGUUGACGAGGAGGAGGUUUAUCGAAUUUUCGGCGGAUGCCUCCAAA | < 1e-05 s⁻¹ | – | – | –
AUAAAAGCACCGGAACUACAGAAAUGUAGUUGACAAGGAGGAGGUUAAUCGAUUUUUCGGCGGAUGCCUCCAAA | < 1e-05 s⁻¹ | < 1e-05 s⁻¹ | – | –
AUAAAAGCACCUGAACUACAGAAAUGUAGUUGACGAGGAGGAGGUUUAUCGAAUUUUGGGCGGAUGCCUCCAAA | < 1e-05 s⁻¹ | – | – | –
AUAAAAGCACCUCAACUACAGAAAUGUAGUUGACGAGGAGGAGGUUUAUCGAAUUUUCGGCGGUUGCCUCCAAA | < 1e-05 s⁻¹ | < 1e-05 s⁻¹ | – | –
AUAAAAGCACCUGAACUACAGAAAUGUAAUUAACGAGCAGGAGGUUUAUCGAAUUUUCGAAGGAUGCCUCCAAA | < 1e-05 s⁻¹ | – | – | –
AUAAAAGCACCAGAGCUACAGAAAUGUAGUUGACGAGUAGGAGGUUUAUCGAAUUUUCGGCGGAUGCCUCCAAA | < 1e-05 s⁻¹ | < 1e-05 s⁻¹ | – | < 1e-05 s⁻¹
AUAAAAGCACCAGAACUACAGAAAUGUAGUUGCCGAGGAGGAGGUUUAUCGUAUUCCCGGCGGAUGCCUCCAAA | < 1e-05 s⁻¹ | – | – | –
AUAAAAGCACCAGAACUACAGAAAUGUAGUUGACGAGGUGGAGGAUUAUCGAAUUUGCGGCGGAUGCCUCCAAA | < 1e-05 s⁻¹ | – | – | –
AUAAAAGCAGCAGAACUACAGAAAUGUAGUUGACGCGAAGGAGGUUUAUCGAAUUUUCGUCGGAUGCCUGCAAA | < 1e-05 s⁻¹ | – | – | –
AUAAAAGCAUCAGAACUACAGAAAUGUAGUUGACGAGGAGGAGCUUUAUCGAAUUUUCAGCGGAUGCCUCCAAA | < 1e-05 s⁻¹ | < 1e-05 s⁻¹ | – | < 1e-05 s⁻¹
AUAAAAGCACAAGGACUACAGAAAUGUAGUUGAGUUGGAGGAGGUUUUUCGAAUCUUCGGCGGAUGGCCCCAAA | < 1e-05 s⁻¹ | – | – | –
AUAAAAGCACCAGAAAUACAGAAAUGUAGUUGACGAGGAGGAGGUUUAUCGCAUUUUCGGCGGAUGCCUCCAAA | < 1e-05 s⁻¹ | < 1e-05 s⁻¹ | – | < 1e-05 s⁻¹
AUAAAAGCACCAGAAAUACAGAAAUGUAGUUGACGAGGAGGAGGUUUAUCGAAUUUUCGGCGAAUGCCUCCAAA | < 1e-05 s⁻¹ | < 1e-05 s⁻¹ | – | < 1e-05 s⁻¹

Variant | self-cleavage kobs at 640 uM GlcN6P (glucosamine-6-phosphate [1]) | self-cleavage kobs at 2500 uM GlcN6P (glucosamine-6-phosphate [2]) | self-cleavage kobs at 10000 uM GlcN6P (glucosamine-6-phosphate [3]) | self-cleavage kobs at 160 uM GlcN6P (glucosamine-6-phosphate [4])
AUAAAAGCACCAGAAUUACAGAAAUGUAGUUGACGAGGAGGUGGUUUAUCGAAUUUUCGGCGGAUGCCUCCAAA | < 1e-05 s⁻¹ | < 1e-05 s⁻¹ | – | –
AUAAAAGCACCAGAACUACAGAAAUGUAGUUGACGAGGAGGAGGUUUAUCGAAUUUUGGGCGGAAGCCUCCAAA | < 1e-05 s⁻¹ | < 1e-05 s⁻¹ | – | –
AUAAAAGCACCAGAACUACAGAAAUGUAGUUGACGAGGAGGAGGUUUAUCGAAUUUUCGGCGGAUGUCUUCAAA | < 1e-05 s⁻¹ | – | < 1e-05 s⁻¹ | –
AUAAAAGCACCACAACUACAGAAAUGUAGUUGACGAGGAGGAGGUUUAUCGAAGUUUCGGCGGAUGCCGCCAAA | < 1e-05 s⁻¹ | – | – | –
AUAAAAGCACCAGAACUACAGAAAUGUAGUUGACAAGGAGGAGGUUUAUCGAAUUUUUGGCGGAUGCCUCUAAA | < 1e-05 s⁻¹ | – | – | –
AUAAAAGCACCAGAACUACAGAAAUGUAGUUGACGAGCAGGGGGUUUAUCGAAUUUUCGGCGGAUGCCUCCAAA | < 1e-05 s⁻¹ | – | – | < 1e-05 s⁻¹
AUAAAAGCACCAGAACUACAGAAAUGUAGUUGACGAGCAGGAGGUUUAUCGAAUUUACGGCGGAUGCCUCCAAA | < 1e-05 s⁻¹ | – | – | –
AUAAAAGCACCAGAACUACAGAAAUGUAGUUGACGAGGAAGACGUUUAUCGAAUUUUCGACGGAUGCCUCCAAA | < 1e-05 s⁻¹ | < 1e-05 s⁻¹ | – | –
AUAAAAGCACCAGAACUACAGAAAUGUAGCUGACGAGGAGGCGGUUUAUCGAAUUUUCGGCGGAUGCCUCCAAA | < 1e-05 s⁻¹ | – | – | < 1e-05 s⁻¹
AUAAAAGCACCAGAACUACAGAAAUGUAGUCGACGAGGAGGAGGUUUAUCGAAUUUUCGGCGGAUGCCUCCAAA | < 1e-05 s⁻¹ | < 1e-05 s⁻¹ | – | < 1e-05 s⁻¹
AUAAAAGCACCAGAACUACAGAAAUGUAGUUGACGAGGAGGAGGUUUAGCGAAUUUUCGGCUGAUGCCUCCAAA | < 1e-05 s⁻¹ | < 1e-05 s⁻¹ | – | –
AUAAAAGCACCAGAACUACAGAAAUGUAGUUGACGAGGAGGAGGUUUAUCGAAUUUCCGGCGGAUGCCUCCAAA | < 1e-05 s⁻¹ | < 1e-05 s⁻¹ | – | –
AUAAAAGCACCAGAACUACAGAAAUGUAGUUGACGAGGAGGAGGUUUAUCGAAUUUGCGGCGUAUGCCUCCAAA | < 1e-05 s⁻¹ | < 1e-05 s⁻¹ | – | < 1e-05 s⁻¹
AUAAAAGCCCCCUAACUACAGAAAUGUAGUUGACGAGGAGGAGUUUUAUCGAAUUUUCGGCGGAUGACUCCAAA | < 1e-05 s⁻¹ | – | – | –
AUAAAAGCCCCAGCACUACAGAAAUGUAGUUGAUGAGGAGGAGGUUUAUCGAAUUUUCGGCGGAUGCCUCCAAA | < 1e-05 s⁻¹ | < 1e-05 s⁻¹ | – | –
AUAAAAGCCCCAGGACUACAGAAAUGUAGUUGACGAUGAGGAGGUUUAUCGAAUUUUCGGCCGAUGCCUCAAAA | < 1e-05 s⁻¹ | < 1e-05 s⁻¹ | – | –
AUAAAAGCCCCAGGACUACAGAAAUGUAGUUGACGAGGAGGAGGUUUAUCGAAUUAUCGGCGGGUGCAUCCAAA | < 1e-05 s⁻¹ | – | – | –
AUAAAAGCCCCAGUACUACAGAAAUGUAGUUGACGAGGAGGAGGAUUAUCGAAUUUUCGGCGGAUGCCUCCAAA | < 1e-05 s⁻¹ | < 1e-05 s⁻¹ | – | < 1e-05 s⁻¹
AUAAAAGCCCCAGAACUACAGAAAUGUAGUUGCCGAGGAGGAGGUUUAUCGAUUUUUCGGCGGAUGCCUCCAAA | < 1e-05 s⁻¹ | < 1e-05 s⁻¹ | – | –
AUAAAAGCCCCAGAACUACAGAAAUGUAGUUGACGAGGGUGAGGUUUAUCGAAUUUUCGGCGGAUGCCUCCAAA | < 1e-05 s⁻¹ | < 1e-05 s⁻¹ | < 1e-05 s⁻¹ | –
